{"source": "PubChem BioAssay AID1671193", "about": "(National Center for Advancing Translational Sciences (NCATS), 2021)", "note": "The whole screen tested about 150,000 compounds, of which about 180 (0.12%) were called active. Inconclusive means that the source gave no clear call. Such entries were picked first, then a sample of the others. Calls come from the whole dose curve; as a rule, active = well fitted cell-killing curve with a large enough effect; inconclusive = small, poorly fitted or top-dose-only effect, or effect the other way; inactive = flat fitted curve, though single readings scatter. Potencies beside an inconclusive call are fits to weak or partial responses and may not hold up. Potency is the fitted concentration of half-maximal effect; tags give direction and shape of the fitted curve.", "data": [{"assay": "GF-AFC viability counterscreen for inhibitors of alpha-synuclein gene (SNCA) expression; note: nearly all actives have a fitted effect of over 30% in size;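 for activity change, negative = cytotoxicity: 0% = DMSO-treated cells and -100% = medium-only wells without cells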", "conditions": "HEK-293-SNCA-luc viability, GF-AFC fluorescence, 24 h; activity change, negative = cytotoxicity: at 57.1 µM (top of the series) unless noted", "in_short": "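Cytotoxicity counterscreen: after 24 h compound treatment of genome-edited SNCA-luciferase HEK-293 cells, live-cell protease substrate GF-AFC read by fluorescence after 30 min; activity scaled between DMSO (0%) and medium-only (-100%), curves Hill-fitted.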", "values": [{"smiles": "COc1ccc(-n2nc(C)c([C@H]3C=C[C@@H](OC(=O)N[C@H](C)c4ccccc4)C3)c2C)cc1", "Potency": "inconclusive: 28.2 µM [cytotoxic, partial curve]"}, {"smiles": "CCc1cccc(NC(=O)N2CCCC(c3noc(COc4ccccc4F)n3)C2)c1", "note": "(configuration not stated)", "Potency": "inconclusive: 22.4 µM [cytotoxic, single point]"}, {"smiles": "COc1ccccc1NC(=O)c1c(NC(=O)c2ccccc2Cl)sc2c1CCC2", "activity change, negative = cytotoxicity": "inactive: 11.4%"}, {"smiles": "Cc1cccc(OCC(=O)Nc2ccc3nc(Nc4cccc(Cl)c4)cc(C)c3c2)c1", "Potency": "inconclusive: 2.82 µM [rising, full curve, poor fit]"}, {"smiles": "NC(=O)c1cccc(CN2CCC3(CC2)Cc2ccccc2N(C(=O)c2ccc(Cl)cc2)C3)c1", "Potency": "inconclusive: 39.8 µM [cytotoxic, single point]"}, {"smiles": "CN1c2cc(C(N)=O)ccc2C(=O)N2CCCCC21", "note": "(configuration not stated)", "Potency": "inconclusive: 3.98 µM [rising, single point]"}, {"smiles": "CCOCCCn1c(=N)c(C(=O)NCC2CCCO2)cc2c(=O)n3cc(C)ccc3nc21", "note": "(configuration not stated)", "Potency": "inconclusive: 4.47 µM [rising, full curve]"}, {"smiles": "O=C1NCCN2CC3(CCN(S(=O)(=O)Cc4ccccc4)CC3)CC12", "note": "(configuration not stated)", "activity change, negative = cytotoxicity": "inactive: -5.91%"}, {"smiles": "CC(C)COc1ccccc1C1CC(=O)Nc2cc3c(cc21)OCO3", "note": "(configuration not stated)", "Potency": "inconclusive: 10 µM [cytotoxic, partial curve, poor fit]"}, {"smiles": "O=C(c1ccc2c(c1)N(C(=O)c1ccccc1)CC2)N1CCN(c2cccc(Cl)c2)CC1", "Potency": "inconclusive: 12.6 µM [cytotoxic, partial curve, poor fit]"}, {"smiles": "COc1cccc(N(CC(=O)N2CCC(C)CC2)S(=O)(=O)c2ccc(C)cc2)c1", "Potency": "inconclusive: 28.2 µM [cytotoxic, single point]"}, {"smiles": "COc1ccc(Cl)cc1NC(=O)c1c(NCc2ccc(C)o2)sc2c1CCCC2", "Potency": "inconclusive: 11.2 µM [rising, partial curve, poor fit]"}, {"smiles": "COCCn1c(=O)c(-c2ccccc2)nc2cnc(N3CCN(C)CC3)nc21", "Potency": "inconclusive: 12.6 µM [rising, partial curve, poor fit]"}, {"smiles": "NC(=O)c1cccc(-c2ccc3c(n2)CN(Cc2ccc(F)cc2)C(=O)CO3)c1", "Potency": "inconclusive: 25.1 µM [cytotoxic, partial curve, poor fit]"}, {"smiles": "COc1cc(CNC(C)Cn2nc(C)cc2C)ccc1OCCN1CCCC1", "note": "(configuration not stated)", "Potency": "inconclusive: 39.8 µM [cytotoxic, single point]"}, {"smiles": "CC1=C[C@@H](CNS(=O)(=O)Cc2ccccc2)[C@H](C(C)C)C[C@H]1CC(=O)NCc1ccccn1", "Potency": "inconclusive: 10 µM [cytotoxic, partial curve, poor fit]"}, {"smiles": "COc1ccccc1NC(=O)C1CCC(CNS(=O)(=O)c2ccc3c(c2)CC(C)N3C(C)=O)CC1", "note": "(configuration not stated)", "Potency": "inconclusive: 31.6 µM [cytotoxic, single point]"}, {"smiles": "Cc1ccc(C(=O)N2CCCC2c2nc(CCOCC3CCOCC3)no2)s1", "note": "(configuration not stated)", "Potency": "inconclusive: 10 µM [cytotoxic, partial curve, poor fit]"}, {"smiles": "Cc1ccccc1CN1CCc2nc(N(C)Cc3cccnc3)[nH]c(=O)c2CC1", "activity change, negative = cytotoxicity": "inactive: 2.58%"}, {"smiles": "Cc1ccc([S+](=O)([O-])N2CCC3(C2)C(=O)N(CCc2ccccc2)c2ccccc23)cc1", "note": "(configuration not stated)", "Potency": "inconclusive: 39.8 µM [cytotoxic, single point]"}, {"smiles": "Cc1cc(C)c(CNC(=O)c2nc(-c3ccccc3)cc3[nH]ccc23)c(=O)[nH]1", "Potency": "inconclusive: 20 µM [cytotoxic, partial curve, poor fit]"}, {"smiles": "COc1ccccc1CC(=O)N1CCC(C2CCN(S(C)(=O)=O)CC2)C1", "note": "(configuration not stated)", "activity change, negative = cytotoxicity": "inactive: 6.13% [at 12.5 µM]"}, {"smiles": "COc1cc(C(=O)N2C[C@@H](C)[C@@](C)(O)C2)ccn1", "Potency": "inconclusive: 7.08 µM [cytotoxic, single point]"}, {"smiles": "O=C(CCc1cc(Cl)no1)N1CCc2c(nc3cc(-c4ccccc4)[nH]n3c2=O)C1", "activity change, negative = cytotoxicity": "inactive: -3.75%"}, {"smiles": "CNCc1ccc(C)c(NC(=O)c2ccc(Nc3nc(-c4ccccc4)c4ccccc4n3)cc2)c1", "Potency": "inconclusive: 33.6 µM [cytotoxic, single point]"}, {"smiles": "COc1ccc(C(=O)N2CCN(c3nccc(Nc4ccccc4OC)n3)CC2)cc1", "activity change, negative = cytotoxicity": "inactive: -7.61%"}, {"smiles": "O=C(c1ccc(C(F)(F)F)cc1)N1CCC2(CC1)Cc1ccccc1NC2=O", "Potency": "inconclusive: 25.1 µM [cytotoxic, single point]"}, {"smiles": "CCOc1ccccc1C(=O)NCc1nnc2c(-c3nc(C4CC4)no3)cccn12", "activity change, negative = cytotoxicity": "inactive: -5.04%"}, {"smiles": "Cc1ccccc1C(=O)N1CCC[C@H]1c1nc(-c2ccc(F)cc2)no1", "activity change, negative = cytotoxicity": "inactive: -5.47%"}, {"smiles": "CC(C)c1ccc(OCc2cc(=O)n3c(-c4ccccc4)csc3n2)cc1", "activity change, negative = cytotoxicity": "inactive: -14%"}, {"smiles": "Oc1ccccc1CN1CCNc2cc(-c3ccccc3)ncc2C1", "Potency": "inconclusive: 39.8 µM [cytotoxic, single point]"}, {"smiles": "Clc1ccccc1-c1nc(NCc2cccs2)c2ccccc2n1", "activity change, negative = cytotoxicity": "inactive: -8.09%"}, {"smiles": "O=C([C@@H]1C[C@H](Oc2cccnc2)CN1C(=O)c1cc2ccccc2[nH]1)N1CCCC1", "Potency": "inconclusive: 6.31 µM [cytotoxic, full curve, poor fit]"}, {"smiles": "Cc1c(Cl)cccc1NC(=O)CN1C(=O)NC2(CCCCC2)C1=O", "activity change, negative = cytotoxicity": "inactive: 7.15%"}, {"smiles": "O=C1c2ccccc2-c2onc3c(NCCO)cc(NC4CCCCC4)c1c23", "Potency": "inconclusive: 28.2 µM [cytotoxic, partial curve, poor fit]"}, {"smiles": "Cc1noc2c(-c3cn[nH]c3)cc(-c3cccc(C(F)(F)F)c3)nc12", "Potency": "inconclusive: 31.6 µM [cytotoxic, single point]"}, {"smiles": "COc1cccc(-n2c(=O)c3sc4ccccc4c3n(CC(=O)Nc3ccccc3C)c2=O)c1", "Potency": "inconclusive: 0.501 µM [cytotoxic, full curve, poor fit]"}, {"smiles": "COC[C@@H]1CN(Cc2cccc(C#N)c2)C[C@H]1c1ccncc1", "Potency": "inconclusive: 39.8 µM [cytotoxic, single point]"}, {"smiles": "COc1cc(/C=C/c2nc(C#N)c(N3CCC(C)CC3)o2)cc(OC)c1OC", "Potency": "inconclusive: 28.2 µM [rising, single point]"}, {"smiles": "O=C1Nc2ccc(Cl)cc2[C@@](C#CC2CC2)(C(F)(F)F)O1", "Potency": "inconclusive: 26.7 µM [cytotoxic, single point]"}, {"smiles": "CCc1ccc(C(=O)N2CCC(N3C(=O)N(Cc4cccnc4)CC34CCOC4)CC2)cc1", "note": "(configuration not stated)", "Potency": "inconclusive: 39.8 µM [cytotoxic, single point]"}, {"smiles": "COc1ccc(-c2cc(-c3cccc(CO)c3)cn3cncc23)cc1", "Potency": "inconclusive: 15.8 µM [cytotoxic, partial curve, poor fit]"}, {"smiles": "CC(Oc1ccccc1)C(=O)Nc1nnc(S(=O)(=O)N2CCCCCC2)s1", "note": "(configuration not stated)", "Potency": "inconclusive: 3.55 µM [cytotoxic, full curve, poor fit]"}, {"smiles": "CC[C@H]1CN(C(=O)c2ccccc2)CC[C@H]1CC(=O)N1CCOCC1", "activity change, negative = cytotoxicity": "inactive: 0.858% [at 87.6 µM]"}, {"smiles": "COc1ccc(OCC2(C)COc3ccc(C(=O)NC4CCC(O)CC4)cc3N2)cc1", "note": "(configuration not stated)", "Potency": "inconclusive: 10 µM [cytotoxic, single point]"}, {"smiles": "Cc1nn(-c2ccc(F)cc2)c(C)c1CNC(=O)C1NCCc2[nH]cnc21", "note": "(configuration not stated)", "activity change, negative = cytotoxicity": "inactive: 1.32%"}, {"smiles": "CCOC(=O)c1[nH]c2ccccc2c1NC(=O)c1ccccc1OC", "Potency": "inconclusive: 28.2 µM [cytotoxic, partial curve, poor fit]"}, {"smiles": "COc1cc(F)ccc1-c1ccnc2nc(Cc3ccc(F)cc3)nn12", "activity change, negative = cytotoxicity": "inactive: 2.38%"}, {"smiles": "COc1ccc(-c2nnc([C@H]3CCN(C(=O)c4ccccc4)C3)o2)cc1", "Potency": "inconclusive: 39.8 µM [cytotoxic, partial curve, poor fit]"}, {"smiles": "COc1ccc(Cc2nnc(C(=O)NCCCN3CCN(c4ccccc4F)CC3)o2)cc1OC", "Potency": "inconclusive: 7.08 µM [cytotoxic, partial curve, poor fit]"}, {"smiles": "COc1ccc2c(c1)c(=O)c(C(=O)c1ccc(C)cc1)cn2Cc1ccccc1F", "Potency": "inconclusive: 15.8 µM [cytotoxic, partial curve, poor fit]"}, {"smiles": "COc1ccc(C2c3c(-c4ccccc4O)n[nH]c3C(=O)N2CCc2ccccc2)cc1", "note": "(configuration not stated)", "Potency": "inconclusive: 39.8 µM [cytotoxic, single point]"}, {"smiles": "O=c1[nH]c(C2CCCN(Cc3ccccn3)C2)nn1-c1ccc(Cl)cc1", "note": "(configuration not stated)", "Potency": "inconclusive: 15.8 µM [cytotoxic, partial curve, poor fit]"}, {"smiles": "Cc1cc(C(=O)N2CCC(Cc3ccc(C(N)=O)cc3)CC2)n(C)n1", "Potency": "inconclusive: 1.41 µM [cytotoxic, partial curve, poor fit]"}, {"smiles": "CCC1CCCCN1CCCNC(=O)c1ccc2c(c1)sc1nc(-c3ccc(F)cc3)cn12", "note": "(configuration not stated)", "Potency": "inconclusive: 31.6 µM [cytotoxic, partial curve, poor fit]"}, {"smiles": "Cc1cnc(-c2ccccc2)n1CC1CCN(C(=O)C(C)c2ccccc2)CC1", "note": "(configuration not stated)", "Potency": "inconclusive: 39.8 µM [cytotoxic, single point]"}, {"smiles": "O=C1NCCCCCN(Cc2cccnc2)[C@@H]2CN(Cc3cccc(F)c3)CC[C@@H]12", "activity change, negative = cytotoxicity": "inactive: -7.19%"}, {"smiles": "Cc1nc(C)c(C(=O)N2CCC[C@H](n3c(=O)n(Cc4ccccc4)c4cccnc43)C2)s1", "activity change, negative = cytotoxicity": "inactive: -3.11%"}, {"smiles": "Cc1noc(C)c1C(=O)N1CCC([C@H]2[C@@H](Oc3ccccc3)CN2C(C)C)CC1", "Potency": "inconclusive: 0.631 µM [rising, full curve, poor fit]"}, {"smiles": "Cc1ccc(NC(=O)c2nc(S(=O)(=O)Cc3cccc(C)c3)ncc2Cl)cc1", "Potency": "active: 28.2 µM"}, {"smiles": "O=C(Nc1cccc(-c2ccc(N3CCOCC3)nn2)c1)Nc1cc(F)ccc1F", "Potency": "inconclusive: 39.8 µM [cytotoxic, single point]"}, {"smiles": "Cc1cccn2c(Nc3ccc4c(c3)OCCO4)c(-c3ccc(Br)o3)nc12", "Potency": "inconclusive: 28.2 µM [cytotoxic, single point]"}]}]}
